# Test results: the supplement of paper PMC10723795
# The other results are listed elsewhere or left out.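 Rule for the calls: active = more than 2 SD below the DMSO mean: under 0.85 at 10 µM or 0.885 at 1 µM; inactive = the rest.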 Most values come without repeats; read them as rough. Where a SMILES comes first, the peptide text is derived from it. [ ]: non-standard residue; d: D form.
# Test system: RPE1
# Assay: nucleolar normality score relative to DMSO (fraction of DMSO control); RPE1 is a non-cancer human cell line; higher = more normal nucleoli (less nucleolar stress)
# Conditions: 24 h
# 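Note: fixed cells immunolabelled for nucleolin and UBF, 40 image fields per well in 384-well plates, per-cell score = nucleolin nucleolar/nucleoplasm intensity ratio divided by the matching UBF ratio.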
Structure (SMILES),nucleolar normality score (1 µM),nucleolar normality score (10 µM)
Cc1ccc(-n2nc(C(C)(C)C)cc2NC(=O)NCc2cc(F)ccc2Oc2ccc3c(cnn3CCO)c2)cc1 [Pexmetinib (ARRY-614)],inactive: 0.938,inactive: 1.03
Oc1ccc(-c2nc(-c3ccc(F)cc3)c(-c3ccncc3)[nH]2)cc1,inactive: 0.987,inactive: 1.05
O=C(O)c1cc(=O)[nH]c(=O)[nH]1 [Orotic acid (6-Carboxyuracil)],inactive: 1.02,inactive: 0.916
C[C@@H]1O[C@@H](O[C@H]2[C@H](OC(=O)[C@]34CCC(C)(C)C[C@H]3C3=CC[C@@H]5[C@@]6(C)C[C@H](O)[C@@H]7O[C@@H]8O[C@H](CO)[C@@H](O)[C@H](O)[C@H]8O[C@@H]8OC[C@H](O)[C@H](O)[C@H]8OC(=O)CC(C)(O)CC(=O)OC[C@@]7(C)[C@@H]6CC[C@@]5(C)[C@]3(C)CC4)OC[C@H](O)[C@@H]2O)[C@H](O)[C@H](O[C@@H]2OC[C@@H](O)[C@H](O)[C@H]2O)[C@H]1O (some centres not stated) [Tubeimoside I],inactive: 1,inactive: 0.932
Cc1ccccc1C(C(=O)NC1CCCCC1)N(C(=O)Cn1ccnc1C)c1cccc(F)c1 (configuration not stated),inactive: 0.933,inactive: 1.03
CONC(=O)c1ccccc1Nc1cc(Nc2cc(C)nn2C(C)C)ncc1Cl,inactive: 0.997,inactive: 1.04
O=C(O)C(Cc1ccccc1[N+](=O)[O-])=NNc1nc(-c2ccc(Cl)c(Cl)c2)cs1,inactive: 1.03,inactive: 0.952
CCn1cc(C(=O)O)c(=O)c2cc(F)c(N3CCNCC3)nc21 [Enoxacin Sesquihydrate],inactive: 1.04,inactive: 1.02
COCCOc1nc(-c2ccc(Cl)c(Cl)c2)n(-c2ccc(NC(=O)CCl)cc2)n1 [MI-2 (MALT1 inhibitor)],inactive: 1.11,inactive: 1.09
Nc1ccc(S(=O)(=O)NC(=O)c2ccccc2)cc1 [Sulfabenzamide],inactive: 1.03,inactive: 1.08
C[C@@H](O)[C@H]1C(=O)N2C(C(=O)O)=C(S[C@@H]3CN[C@H](C(=O)Nc4cccc(C(=O)O)c4)C3)[C@H](C)[C@H]12 [Ertapenem sodium],inactive: 1.08,inactive: 1
N=C(N)NCCC[C@@H](N)C(=O)N[C@H](CCCNC(=N)N)C(=O)N[C@H](CCCNC(=N)N)C(=O)N[C@H](CCCNC(=N)N)C(=O)N[C@H](CCCNC(=N)N)C(=O)N[C@H](CCCNC(=N)N)C(=O)N[C@H](CCCNC(=N)N)C(=O)N[C@H](CCCNC(=N)N)C(=O)N[C@H](CCCNC(=N)N)C(=O)N[C@H](CS)C(=O)N[C@H](CCC(N)=O)C(=O)N[C@H](CS)C(=O)N[C@H](CCCNC(=N)N)C(=O)N[C@H](CCCNC(=N)N)C(=O)N[C@H](CCCCN)C(=O)N[C@H](CC(N)=O)C(=O)O (H-[dR][dR][dR][dR][dR][dR][dR][dR][dR][dC][dQ][dC][dR][dR][dK][dN]-OH),inactive: 1.05,inactive: 1.09
O=C(COc1cccc2c(=O)[nH]ccc12)c1ccccc1,inactive: 1,inactive: 1.03
CC(C)OC(=O)C(C(=O)OC(C)C)=C1SC=CS1 [Malotilate],inactive: 0.949,inactive: 1.06
CCS(=O)(=O)Nc1ccc(Oc2ccc(F)cc2F)c(-c2cn(C)c(=O)c3[nH]ccc23)c1 [Mivebresib(ABBV-075)],inactive: 0.981,inactive: 0.887
C=C(C)[C@@H]1CC[C@]2(C(=O)O)CC[C@]3(C)[C@H](CC[C@@H]4[C@@]5(C)CC[C@H](O)C(C)(C)[C@@H]5CC[C@]43C)[C@@H]12 [Betulinic acid],inactive: 0.917,active: 0.684

Structure (SMILES),nucleolar normality score (1 µM),nucleolar normality score (10 µM)
O=C(NOCC1CC1)c1ccc(F)c(F)c1Nc1ccc(I)cc1Cl,inactive: 1.03,inactive: 1.09
Nc1nc(F)nc2c1ncn2[C@@H]1O[C@H](COP(=O)(O)O)[C@@H](O)[C@@H]1O [Fludarabine Phosphate],inactive: 1.07,inactive: 1.08
"Cc1ccc2c(c1)C(=O)C1(O)CCN(c3ccccc3)C1=N2 (single isomer, unassigned; (-)) [(-)-Blebbistatin]",inactive: 1.01,inactive: 0.873
CS(=O)(=O)c1ccc(C(=O)Nc2ccc(Cl)c(-c3ccccn3)c2)c(Cl)c1 [Vismodegib (GDC-0449)],inactive: 0.928,inactive: 1.04
O=C1C(c2c(O)[nH]c3ccccc23)=Nc2ccccc21 [Indirubin],inactive: 0.983,active: 0.844
CNc1nc(-c2ccc3c(N)n[nH]c3c2)cc(N2C[C@@H](C(=O)NC3CCCCC3)CC[C@H]2C)n1,inactive: 1.04,active: 0.84
COc1ccc(-c2coc3cc(O)ccc3c2=O)cc1 [Formononetin],inactive: 0.96,inactive: 0.853
O=C(Nc1cc(C(F)(F)F)cc(C(F)(F)F)c1)c1cc(Cl)ccc1O,active: 0.488,active: 0.471
NC(=O)N1CCC(CC(=O)N2CCC([C@H]3c4ncc(Br)cc4CCc4cc(Cl)cc(Br)c43)CC2)CC1 [Lonafarnib],inactive: 1.08,inactive: 0.967
O=C1C[C@@H](c2ccc(O[C@@H]3O[C@H](CO)[C@@H](O)[C@H](O)[C@H]3O)cc2)Oc2cc(O)ccc21 [Liquiritin],inactive: 1.05,inactive: 0.929
Cc1ccc(S(=O)(=O)C=CC#N)cc1,inactive: 1.01,inactive: 0.895
CC(C)Nc1cc(-c2c[nH]c(C(=O)N[C@H](CO)c3cccc(Cl)c3)c2)c(Cl)cn1,inactive: 0.923,inactive: 0.992
O=C(c1cc(Cc2n[nH]c(=O)c3ccccc23)ccc1F)N1CCN(C(=O)C2CC2)CC1,inactive: 0.97,inactive: 1.07
CC(C)(C)C(=O)Nc1ccc2c(c1)C(=O)C(=O)c1ccccc1-2,inactive: 1.03,inactive: 1.08
N=C1NC(=O)/C(=C/c2ccc(O)cc2)S1 [Mirin],inactive: 0.959,inactive: 0.959
